Assay results reported in publication PMC10668032.
The other results are listed elsewhere or left out. At the low end of the ranking the order means little.

The sequences below were run against SIX1 homeodomain (reference allele) (UniProt Q15475) (assay: universal protein binding microarray). Settings: Universal all-10-mer PBM (8x60K, AMADID 030236), 300 nM GST-tagged protein, Alexa Fluor 488 anti-GST; buffer, salt, pH and temperature not stated; high values mean tight binding; most listed sequences are background and not binding sites; double strand, one strand shown.

Row | Sequence | binding signal [E-score]
1 | AAAAACAG | -0.295
2 | ATTTACCG | 0.0707
3 | CTTACGGA | 0.0257
4 | CACTCAAC | -0.0863
5 | CGGACTGA | -0.226
6 | GATACTAA | 0.362
7 | CCAGTGGA | -0.075
8 | GCTGTCAC | 0.0479
9 | AGAGCTTA | -0.0942
10 | ACAGCGTA | -0.055
11 | CAACTCGG | -0.133
12 | AGTGAGGG | -0.132
13 | ACCCCCTC | 0.0442
14 | ATACTTGC | 0.215
15 | AGCGGGCA | -0.183
16 | GCACCGTA | -0.00451
17 | GGCAGGAC | -0.0555
18 | CGGGAGCC | -0.209
19 | ACATGGAT | 0.229
20 | AGACGAAG | -0.149
21 | GACATTCC | -0.123
22 | GGACCAGA | -0.217
23 | TCACCAGA | 0.00781
24 | ACCCTTAA | 0.00502
25 | GTCCAACA | -0.0379

Row | Sequence | binding signal [E-score]
26 | CCAGGCAC | 0.00686
27 | CAGTTCAC | -0.247
28 | CAATGGGC | -0.208
29 | GAGAGCTC | -0.00421
30 | ATACGCCA | 0.291
31 | CACGTCCA | -0.123
32 | TAATCGGA | 0.111
33 | CGTAAGCA | -0.17
34 | CCGAGTTC | -0.136
35 | CGAGAGCG | -0.172
36 | GGTCTTAA | -0.0509
37 | CGTAACAC | 0.205
38 | ACGGTCGC | -0.178
39 | GATGACAC | 0.344
40 | CTTAACAC | 0.151
41 | AGACCAAA | -0.181
42 | CTTTTTAC | -0.0867
43 | ACGATTAC | -0.106
44 | CTGCAGTC | -0.296
45 | ATTCGTAG | 0.0214
46 | CAATATGA | 0.187
47 | TCTCCAGA | 0.165
48 | ATATGCGG | 0.274
49 | CATATATA | 0.279
50 | CCCATTAC | -0.0573

Row | Sequence | binding signal [E-score]
51 | ATTTTCTC | -0.149
52 | ACCCACCC | 0.09
53 | CCCCCAGA | -0.00513
54 | CTCAGAAC | -0.18
55 | CGCTAGTA | 0.134
56 | ACTTTTAA | -0.246
57 | GGAGGGGA | 0.163
58 | ATTTCCAC | -0.18
59 | ACGGTTCC | -0.191
60 | GGGCCCTA | -0.107
61 | ACCCTACA | 0.109
62 | CATCATCA | -0.0362
63 | AAATCCGT | 0.0925
64 | ACGTCCCT | 0.0552
65 | ACTTGAGA | 0.141
66 | ACCATGCA | 0.0958
67 | AGCTCCGG | -0.00649
68 | AATGAGAA | -0.022
69 | ATCACAAG | 0.164
70 | ATGTTCCG | -0.191
71 | GCATTATA | 0.148
72 | GACCCCTA | 0.0617
73 | AGAGTAAT | 0.0611
74 | TACTGACA | 0.182
75 | TCATCGGA | 0.176

Row | Sequence | binding signal [E-score]
76 | AGACCCGG | 0.214
77 | CAGCCCCA | 0.0535
78 | GCTTCGCC | -0.386
79 | ATTTTGAC | -0.117
80 | AGATGTCC | 0.00742
81 | CGGGTCAA | 0.191
82 | CTTATAAG | -0.136
83 | ATGGCTAG | 0.0586
84 | CGAGTGAC | -0.091
85 | ATAGCACA | 0.169
86 | CCACTAGC | -0.0874
87 | GACTCCTC | -0.152
88 | AGAACCCT | 0.0843
89 | ATTGCGCG | -0.0563
90 | GGGGCCCC | -0.0405
91 | ATTCAAGA | 0.0306
92 | TACAAGCA | -0.0262
93 | CACTACCG | -0.0708
94 | CAAATTAA | -0.283
95 | ACTCCTCC | -0.087
96 | CGTAGCTA | -0.0303
97 | GTCCACAA | -0.206
98 | CCAGTGGG | -0.0311
99 | CCTCTCAG | -0.16
100 | ACACGAGA | 0.134

Row | Sequence | binding signal [E-score]
101 | ATGCGCTG | -0.0953
102 | CCCCGGTC | -0.0129
103 | ACTAGCCC | -0.118
104 | AACCTCAT | -0.116
105 | TCTCTGAA | -0.25
106 | ACCGGACT | -0.078
107 | GTGACGCA | -0.139
108 | CGACGCAC | -0.0474
109 | GTAATTCA | -0.0194
110 | CATACGGC | 0.0756
111 | GGACTAAA | -0.0835
112 | TAAAGAGA | -0.159
113 | TACTATAA | 0.075
114 | TCCCGGCA | -0.117
115 | AAGTAGAT | 0.239
116 | ATGGCCAG | -0.0433
117 | GAGGGACA | 0.0621
118 | CAAGGGGC | -0.148
119 | AATGTCAC | -0.0789
120 | GACCGTTA | 0.00061
121 | CATTGGAG | -0.0229
122 | AATGACCG | -0.206
123 | AGGATGGG | 0.122
124 | CGGGGTTA | 0.188
125 | TCGCTAAA | -0.19

Row | Sequence | binding signal [E-score]
126 | GTGACATA | -0.0367
127 | GAGTATGA | 0.0737
128 | GTAGAAAA | -0.17
129 | TACTTAGA | 0.0533
130 | ACATAGGA | -0.0745
131 | AACGTATG | -0.149
132 | ATGAAGTC | -0.184
133 | CTTGGCAA | -0.163
134 | GAAGAACC | -0.122
135 | CGGATCTA | 0.318
136 | TCAGCCCA | -0.0372
137 | CAACTACG | -0.1
138 | ACGAACCC | -0.0698
139 | AACAACTT | -0.254
140 | CATCATAC | 0.151
141 | CGCACGAC | 0.0642
142 | AACGCGTA | -0.0785
143 | AAGTTGAA | -0.318
144 | ACTAAGCA | -0.311
145 | AAATGCGG | -0.166
146 | AAGGCGCG | -0.201
147 | CACACTGG | -0.0578
148 | ACAGGTAT | 0.312
149 | GGAATCAA | -0.104
150 | AGACGACT | 0.0849

Row | Sequence | binding signal [E-score]
151 | ATGTTGCG | -0.0672
152 | ATTTACAA | -0.0379
153 | CTCGACTA | -0.118
154 | AACCCGGC | -0.0303
155 | GGGGTCCA | 0.107
156 | ACATGTGC | -0.224
157 | GGCTGAAC | -0.262
158 | TCATGAAA | -0.0439
159 | CGTAGACG | -0.0672
160 | ACTCTGAC | -0.132
161 | TACCATAA | 0.0698
162 | GCGCCTAA | -0.189
163 | CATTACTC | -0.0365
164 | CAACGTAC | -0.261
165 | AAAACCTG | -0.283
166 | CATACGAG | 0.048
167 | AGCGTTGC | -0.292
168 | ACTTTGGC | -0.141
169 | AAAATCGC | -0.298
170 | AGCTAGAT | 0.193
171 | GGTCCTCA | -0.143
172 | CGACTCAG | -0.0717
